Experimental data reported in PubChem BioAssay AID624417 (National Center for Advancing Translational Sciences (NCATS), 2012).
Out of some 410,000 compounds screened, about 6,400 (1.6%) were called active. The shares of active, inactive and inconclusive entries below differ from those in the screen. Calls come from the whole dose curve; as a rule, active = well fitted inhibition curve with a large enough effect; inconclusive = small, poorly fitted or top-dose-only effect; inactive = no such curve, though single readings can be large or run the other way. No potency is given beside an inconclusive call; the fits are too rough.

Target: Glucagon-like peptide 1 receptor (Homo sapiens) (UniProt P43220)
UniProt P43220, sequence (P43220 whole entry, looked up): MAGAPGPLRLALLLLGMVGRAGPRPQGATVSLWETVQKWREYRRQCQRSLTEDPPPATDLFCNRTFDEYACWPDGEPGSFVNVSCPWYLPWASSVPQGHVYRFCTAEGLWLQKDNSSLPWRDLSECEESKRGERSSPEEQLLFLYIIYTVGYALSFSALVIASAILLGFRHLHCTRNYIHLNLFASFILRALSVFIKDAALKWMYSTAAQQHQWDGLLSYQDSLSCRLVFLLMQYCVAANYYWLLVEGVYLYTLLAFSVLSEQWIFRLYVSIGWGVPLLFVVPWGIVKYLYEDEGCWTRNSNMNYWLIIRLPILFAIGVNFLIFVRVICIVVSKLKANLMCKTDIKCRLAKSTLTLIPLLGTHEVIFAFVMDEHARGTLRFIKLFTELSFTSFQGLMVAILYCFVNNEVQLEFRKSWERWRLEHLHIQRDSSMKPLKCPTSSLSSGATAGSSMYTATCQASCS
Test: qHTS of GLP-1 Receptor Inverse Agonists (Inhibition Mode); note: nearly all actives have a fitted effect of over 55% in size
Details: HEK293 GLP-1R CRE-luciferase, luminescence, 24 h, GLP-1R form is constitutively active; activity change, negative = inhibition: at 38.3 µM (top of the series) unless noted
Method in brief: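 Luminescence readout: a drop in cAMP-driven luciferase signal flags inverse agonism at a constitutively active GLP-1R stably expressed in HEK293. Compound exposure lasted 24 hr at 37 deg C, 5% CO2.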
% is set by controls: 0 for no effect and ±100 for the full control effect; potency is the fitted concentration of half-maximal effect; tags give direction and shape of the fitted curve.

| Structure (SMILES) | Potency | activity change, negative = inhibition |
| --- | --- | --- |
| O=C(Nc1cccc2c1CCCC2)c1cc(C2CCCCN2C(=O)CCCc2ccccc2)on1 (stereo unspecified) | inconclusive [inhibitor, partial curve, poor fit] | – |
| CCN(CC)c1ccc(NC(=O)Cn2nnc(-c3cccc(OC)c3OC)n2)c(C)c1 | – | inactive: 0% |
| O=C(c1cc(-c2ccc(Cl)cc2)nc2ccccc12)N1CCOCC1 | inconclusive [inhibitor, partial curve, poor fit] | – |
| Nc1cc(C(=O)O)ccc1Nc1ccccc1 | – | inactive: 3.95% |
| COc1cc(CCC(=O)Nc2ccc(C)c(S(=O)(=O)N3CCCCCC3)c2)cc(OC)c1OC | inconclusive [inhibitor, partial curve, poor fit] | – |
| O=C(N/N=C/c1ccco1)c1cc(-c2ccncc2)nc2ccccc12 | inconclusive [inhibitor, full curve] | – |
| Cc1cccc(C(=O)NC(=O)Nc2ccc(-c3cc(C(F)(F)F)nn3-c3ccccc3)cc2)c1 | – | inactive: 13.3% |
| CN1CCN(S(=O)(=O)c2ccc(Oc3cccc(C(F)(F)F)c3)nc2)CC1 | inconclusive [inhibitor, single point] | – |
| O=C(NC(=S)Nc1ccc(F)cc1)C1CCCCC1 | – | inactive: -17.1% |
| CC1=C(C(=O)N2CCCCCC2)CC(CC(=O)NC(c2ccccc2)c2ccccc2)C(=O)N1CCC1=CCCCC1 (stereo unspecified) | inconclusive [inhibitor, single point] | – |
| COc1cc(/C=C/CN2CCC(CO)(CC3CCCCO3)CC2)ccc1O (stereo unspecified) | – | inactive: -25.8% |
| CN(Cc1nc(-c2cnccn2)no1)CC1(c2ccccc2)CC1(C)C (stereo unspecified) | inconclusive [inhibitor, partial curve, poor fit] | – |
| OC(c1ccccc1)c1ncc(-c2ccc(C(F)(F)F)cc2)[nH]1 (stereo unspecified) | inconclusive [inhibitor, partial curve, poor fit] | – |
| Cc1ccc(NC(=O)Cn2cnc3nc4c(cc3c2=O)CCCC4)cc1Cl | – | inactive: 2.73% |
| COCCn1nnnc1SCC(=O)c1ccc(F)cc1 | – | inactive: 29% |
| CCc1ccc(S(=O)(=O)Nc2cccc(-c3ccc(N4CCC(C)CC4)nn3)c2)s1 | inconclusive [inhibitor, partial curve, poor fit] | – |
| Cc1cc(NC(=O)NCc2ccc3c(c2)CCN3C(=O)c2ccccc2)ccc1Br | – | inactive: 10.9% |
| CC1CCN(C(=O)CSc2nc(C3CC3)nc3ccccc23)CC1 | inconclusive [inhibitor, partial curve, poor fit] | – |
| CCC1(c2ccccc2)NC(=O)N(CC(=O)c2ccc3c(c2)OCO3)C1=O (stereo unspecified) | inconclusive [inhibitor, single point] | – |
| CCCCCCCCC[n+]1cccc2c3ccccc3ccc21 | active: 10 µM | – |
| CCC(C)NC(=O)c1cn(-c2cccc(C)n2)cn1 (stereo unspecified) | – | inactive: 4.28% |
| N#Cc1nc(-c2ccco2)oc1N1CCC(Cc2ccccc2)CC1 | – | inactive: 0% |

| Structure (SMILES) | Potency | activity change, negative = inhibition |
| --- | --- | --- |
| Cc1ccc(C(C(=O)NCc2ccc(F)cc2)N(Cc2ccco2)C(=O)c2snc(C(N)=O)c2N)o1 (stereo unspecified) | inconclusive [inhibitor, partial curve, poor fit] | – |
| Cc1cccc2sc(N(CCN(C)C)C(=O)c3cc(Cl)sc3Cl)nc12 | inconclusive [inhibitor, single point] | – |
| O=C(COc1ccc(F)cc1)N1CCC(Cc2ccccc2)CC1 | inconclusive [inhibitor, single point] | – |
| CCOc1ccccc1NC(=S)NCCc1ccccc1 | inconclusive [inhibitor, single point] | – |
| COc1ccc(C(=O)CSc2nc3ncccc3[nH]2)cc1OC | – | inactive: 53.2% |
| Cc1cc(C(=O)N/N=C\c2cc(C(C)(C)C)ccc2O)n[nH]1 | inconclusive [inhibitor, partial curve, poor fit] | – |
| N#CNc1nc(O)cc(=O)[nH]1 | – | inactive: -4.34% |
| O=CNC1CCCc2c1[nH]c1ccc(Cl)cc21 (stereo unspecified) | inconclusive [inhibitor, single point] | – |
| Cc1ccc(-c2nc3c4ccccc4ccn3c2Cc2ccccc2C(F)(F)F)cc1 | inconclusive [inhibitor, single point] | – |
| O=C(c1ccc(C(=O)N2CCCc3ccccc32)s1)N1CCCc2ccccc21 | – | inactive: -16.3% |
| CC(C)C[C@H]1CN([C@@H](Cc2ccc(O)cc2)CN2CCC[C@@H]2CN2C(=S)NC[C@@H]2Cc2ccccc2)C(=S)N1CC1CCCCC1 | inconclusive [inhibitor, single point] | – |
| COc1ccc(-c2nc(SCC(=O)c3ccc(OC)c(Br)c3)n[nH]2)cc1 | inconclusive [inhibitor, partial curve, poor fit] | – |
| O=C(/C=C/C(=O)N1CCc2ccccc2C1)N1CCc2ccccc2C1 | – | inactive: 8.34% |
| CCC(C)n1c(=O)c(C(=O)Nc2ccccc2S(N)(=O)=O)c(O)c2ccccc21 (stereo unspecified) | inconclusive [inhibitor, partial curve] | – |
| CCC(Cc1ccccc1)NC(=O)CCNS(=O)(=O)c1cc(Br)cnc1N (stereo unspecified) | inconclusive [inhibitor, single point] | – |
| Cc1nnc(N2C(=O)C(O)=C(C(=O)c3ccco3)C2c2cccc3ccccc23)s1 (stereo unspecified) | inconclusive [inhibitor, partial curve, poor fit] | – |
| CC(NC(=S)NCCN1CCOCC1)C12CC3CC(CC(C3)C1)C2 (stereo unspecified) | – | inactive: -24.8% |
| CCN(CCNCC(O)COCc1ccc(Cl)cc1)c1cccc(C)c1 (stereo unspecified) | active: 10 µM | – |
| Cc1ccc(Cn2c(=N)n(CC(O)COc3ccccc3)c3ccccc32)cc1 (stereo unspecified) | inconclusive [inhibitor, partial curve, poor fit] | – |
| CSc1nc2ccccc2n1Cc1cccc(F)c1 | inconclusive [inhibitor, single point] | – |
| CC(c1cccs1)N(Cc1ccco1)C(=S)Nc1ccccc1Cl (stereo unspecified) | inconclusive [inhibitor, partial curve, poor fit] | – |
| CCC(C(=O)Nc1cc(OC)c(NC(=O)c2ccccc2)cc1OC)c1ccccc1 (stereo unspecified) | inconclusive [inhibitor, full curve, poor fit] | – |

| Structure (SMILES) | Potency | activity change, negative = inhibition |
| --- | --- | --- |
| O=C(NCCC(=O)N(Cc1ccco1)Cc1cccs1)c1ccccc1Cl | inconclusive [inhibitor, partial curve, poor fit] | – |
| COc1ccc(OCc2ccc(-c3nc(C#N)c(N4CCN(c5cccc(Cl)c5)CC4)o3)o2)cc1 | – | inactive: -11.1% |
| COc1cc(Cl)ccc1OCc1cc(C(=O)N2CCC(N(C)C)C2)no1 (stereo unspecified) | inconclusive [inhibitor, partial curve] | – |
| COc1ccc(S(=O)(=O)N2CCN(Cc3ccc4c(c3)OCO4)CC2)cc1F | inconclusive [inhibitor, single point] | – |
| COc1cccc(-c2cc(C(=O)Nc3ccncc3)c3ccccc3n2)c1 | – | inactive: -36.5% |
| COc1ccc(CCNC(=O)COc2ccc(S(=O)(=O)NC3CCCCC3)cc2Cl)cc1OC | inconclusive [inhibitor, single point] | – |
| OC(CN1CCN(c2cccc(Cl)c2)CC1)c1ccccc1 (stereo unspecified) | inconclusive [inhibitor, partial curve, poor fit] | – |
| O=C(O)c1cc2c(=O)c3ccccc3oc2nc1C(F)(F)F | – | inactive: 2.31% |
| CCCNC(=S)N1CCN(c2nc(-c3ccc(C)cc3)cs2)CC1 | inconclusive [inhibitor, single point] | – |
| CN(C)c1ccccc1C(=O)N1CCCC(C(=O)c2ccc3ccccc3c2)C1 (stereo unspecified) | inconclusive [inhibitor, single point] | – |
| O=C(c1ccc(Cl)cc1)c1c[nH]c(C(=O)NNc2cccc(Cl)n2)c1 | inconclusive [inhibitor, partial curve, poor fit] | – |
| Cc1cc(F)ccc1NC(=O)CN(C)S(=O)(=O)c1ccc(C(=O)N2CCOCC2)s1 | – | inactive: 7.71% |
| CC(C)(C)C1CCc2sc(C(=O)NNC(=O)CCl)cc2C1 (stereo unspecified) | inconclusive [inhibitor, partial curve] | – |
| COC(=O)c1sccc1NC(=O)CCC1CCCC1 | inconclusive [inhibitor, single point] | – |
| O=c1cc(CN2CCN(c3cccc(Cl)c3)CC2)c2cc(O)c(-c3ccccc3)cc2o1 | inconclusive [inhibitor, full curve] | – |
| O=C(Nc1cccc2c1CCCC2)c1ccccc1Cl | inconclusive [inhibitor, single point] | – |
| CCc1ccc2nc(SCC(=O)N(CC)CC)c(C#N)cc2c1 | inconclusive [inhibitor, partial curve, poor fit] | – |
| COc1cccc(CC2(CO)CCCN(C/C=C/c3ccccc3OC)C2)c1 (stereo unspecified) | inconclusive [inhibitor, partial curve, poor fit] | – |
| O=C1N(Cc2cccc(C(F)(F)F)c2)c2ccccc2S(=O)(=O)N1c1cccc(Cl)c1 | inconclusive [inhibitor, single point] | – |
| Cc1nn(Cc2c(Cl)cccc2Cl)c(C)c1NC(=O)c1cc(C(C)C)on1 | inconclusive [inhibitor, full curve, poor fit] | – |
| CCN(CC)C(=O)[C@H]1C[C@H](CC(=O)NCc2cccc(C(F)(F)F)c2)C(=O)N2CCc3c([nH]c4ccc(Cl)cc34)[C@]12C | inconclusive [inhibitor, single point] | – |
| CC(C)CC1C(=O)N(Cc2cn(CC3CCCCC3)nn2)CCS(=O)(=O)N1Cc1ccc(-c2cccc(CO)c2)cc1 (stereo unspecified) | inconclusive [inhibitor, partial curve, poor fit] | – |
